The record followed here is patent publication US20200392228A1 (PANDION OPERATIONS, published 2020).

Experiment [1] has as its target T1, CD25 (Homo sapiens (Human), UniProt P01589 22-240).
T1 construct: also called IL-2R alpha chain
T1 sequence: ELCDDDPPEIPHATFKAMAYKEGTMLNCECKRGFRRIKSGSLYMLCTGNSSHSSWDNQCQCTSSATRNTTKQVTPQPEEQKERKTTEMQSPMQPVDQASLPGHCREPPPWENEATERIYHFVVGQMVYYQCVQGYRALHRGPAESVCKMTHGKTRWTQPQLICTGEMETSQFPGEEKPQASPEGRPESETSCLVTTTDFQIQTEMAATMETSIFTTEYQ
As to the kind of experiment: ELISA, plate-bound CD25. As for the experimental part: An immunosorbent plate was coated with CD25 at a concentration of 0.5 μg/mL in PBS pH 7.4, 75 ul/well, and incubated overnight at 4° C. Wells were washed with PBS pH 7.4 containing 0.05% Tween-20 (wash buffer) three times, and then blocked with 200 ul/well 1% BSA in PBS pH 7.4 (block buffer) for two hours at room temperature. After three washes with wash buffer IL-2M molecules of Example 12 were diluted to eleven—two fold serial dilution in PBS containing 1% BSA and 0.05% Tween-20 (assay buffer) with 2 nM being the highest concentration. The diluted material was added to the CD25 coated plate at 75 ul/well for 1 hour at room temperature. After three washes with wash buffer, a goat biotinylated anti-IL-2 polyclonal antibody, diluted to 0.05 μg/mL in assay buffer, was added to the plate at 75 ul/well for 1 hr at room temperature. After three washes with wash buffer high sensitivity streptavidin HRP diluted in assay buffer at 1:5000 was added to the plate at 75 ul/well for 15 minutes at room temperature. After three washes with wash buffer and 1 wash with wash buffer (with no tween-20), the assay was developed with TMB, and stopped with 1N HCL. OD 450 nm was measured. The experiment included appropriate controls for non-specific binding of IL-2M molecules to the plate/block in the absence of CD25 and a negative control molecule that is unable to bind CD25.
A general note: ELISA stands for enzyme-linked immunosorbent assay.

The target in experiment [2] is T2, mouse MAdCAM expressed on cells (mouse, UniProt Q61826 22-405).
T2 construct: whole, on cells
T2 sequence (looked up): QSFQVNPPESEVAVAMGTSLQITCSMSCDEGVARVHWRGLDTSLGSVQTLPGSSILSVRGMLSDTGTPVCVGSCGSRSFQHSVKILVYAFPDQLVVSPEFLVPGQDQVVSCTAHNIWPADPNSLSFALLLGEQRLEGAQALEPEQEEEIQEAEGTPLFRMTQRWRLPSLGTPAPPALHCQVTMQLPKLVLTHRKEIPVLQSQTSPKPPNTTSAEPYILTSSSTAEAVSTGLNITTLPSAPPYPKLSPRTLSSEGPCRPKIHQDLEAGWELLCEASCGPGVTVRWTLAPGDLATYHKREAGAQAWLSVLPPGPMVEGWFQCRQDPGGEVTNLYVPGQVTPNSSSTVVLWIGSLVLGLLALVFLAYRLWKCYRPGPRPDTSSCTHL
As to the kind of experiment: cell binding.

Experiment [3] addresses T3, human MAdCAM expressed on cells (human, UniProt Q13477 19-382).
T3 construct: whole, on cells; also called MADCAM1
T3 sequence (looked up): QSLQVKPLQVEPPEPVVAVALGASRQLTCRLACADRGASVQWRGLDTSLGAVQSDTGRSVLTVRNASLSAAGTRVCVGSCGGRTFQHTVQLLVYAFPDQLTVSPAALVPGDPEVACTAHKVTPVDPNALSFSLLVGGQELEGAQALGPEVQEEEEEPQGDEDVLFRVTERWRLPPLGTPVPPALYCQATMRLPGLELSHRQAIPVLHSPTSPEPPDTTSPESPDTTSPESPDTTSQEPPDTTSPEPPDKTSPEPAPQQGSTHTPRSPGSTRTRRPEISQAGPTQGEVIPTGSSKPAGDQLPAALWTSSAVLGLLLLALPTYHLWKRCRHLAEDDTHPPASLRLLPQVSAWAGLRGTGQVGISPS
As to the kind of experiment: cell binding.

For experiment [4], the target named is T4, human MAdCAM protein (human, UniProt Q13477 19-317).
T4 construct: used for Octet, SPR, ELISA and plate capture; construct not described; also called recombinant human MAdCAM; soluble monomeric human MAdCAM
T4 sequence (looked up): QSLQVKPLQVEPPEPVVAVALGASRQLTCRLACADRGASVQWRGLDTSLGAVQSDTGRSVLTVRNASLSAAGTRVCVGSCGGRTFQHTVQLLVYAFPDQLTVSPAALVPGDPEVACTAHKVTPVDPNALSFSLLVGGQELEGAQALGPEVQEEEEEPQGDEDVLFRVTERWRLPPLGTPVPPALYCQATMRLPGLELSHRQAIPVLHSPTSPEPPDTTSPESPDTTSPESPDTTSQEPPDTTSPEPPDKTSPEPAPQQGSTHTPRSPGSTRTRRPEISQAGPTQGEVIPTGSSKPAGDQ
The experiment can be described thus: Octet. In general terms: Biolayer interferometry detects binding as a change in optical thickness at a sensor tip.

B1: human IL-2M fused C-terminally to human IgG1 Fc domain (SEQ ID NO: 58) (Fc fusion)
chain: [human IgG1 Fc with changes cut from this listing]GGGSAPTSSSTKKTQLQLEHLLLDLQMILNGINNYKNPKLTRMLTFKFYMPKKATELKHLQCLEEELKPLEEALNLAPSKNFHLRPRDLISDINVIVLELKGSETTFMCEYADETATIVEFLNRWITFAQSIISTLT
notes: also called Fc-G4S-IL-2 N88D V69A, Q74P
In experiment [1], B1 showed an EC50 of less than 1 nM.

B2: MAdCAM antibody Clone ID 62 of Table 6 (scFv) (scFv)
scFv: QVQLVQSGAEVKKPGSSVKVSCKASGGTFSSYAISWVRQAPGQGLEWMGWMEPHTGNTRYAQKFQGRVTITADESTSTAYMELSSLRSEDTAVYYCAKGGFSWFDPWGQGTLVTVSSGGGGSGGGGSGGGGSGGGG[about 100 residues cut from this listing]FGQGTRLEIK
Turning to B2, the binding result in experiment [2], in experiment [3] and in experiment [4] was “binds” each time.

A word on the EC50: it is the concentration needed to bring the measured effect to its halfway point.
